# From PubChem BioAssay (NCATS)
# Values joined by “and” are separate entries in the source; they are usually repeats but may differ in a detail not shown here. Equal entries are not always repeated. Inconclusive means that the source gave no clear call. Such entries were picked first, then a sample of the others. For some assays here: Potencies beside an inconclusive call are fits to weak or partial responses and may not hold up. Active and inactive are the calls of the source. Calls follow the shape of the dose curve; as a rule, active = well fitted curve in the direction sought with a large enough effect; inconclusive = small, poorly fitted or top-dose-only effect, or another doubt; inactive = no such curve, though single readings can be large; an effect the other way counts as inactive or inconclusive.
# Assays:
# HaCat = test: Cytotoxic Profiling of Annotated Libraries Using Quantitative High-Throughput Screening (AID 1296008); settings: Five cell lines viability, CellTiter-Glo ATP luminescence, 48-72 h; max response: stronger effect = lower value; also: nearly all actives have a fitted effect of over 60% in size; as to max response: % is scaled to controls: 0 for no effect and ±100 for the full control effect
# Procedure, shortened: (§1)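 Compounds were pin-transferred onto cells and incubated 48 or 72 hr at 37 degree Celsius, 95% humidity. CellTiter-Glo was added, plates sat 10 min at room temperature, then ATP-coupled luminescence was imaged as the viability read-out.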
# KB-3-1 = test: as above; settings: Five cell lines viability, CellTiter-Glo ATP luminescence, 48-72 h; max response: stronger effect = lower value
# Procedure, shortened: as §1
# NIH3T3 = test: as above; settings: Five cell lines viability, CellTiter-Glo ATP luminescence, 48-72 h; max response: stronger effect = lower value
# Procedure, shortened: as §1
# [1] = Drug repurposing screens with cells derived from glioblastoma tumor samples (AID 1345199); settings: GBM patient neurospheres viability, ATP luminescence, 48 h; Potency: tumour line A unless noted; series mostly up to 46 µM; also: nearly all actives have a fitted effect of over 40% in size; as to activity, negative = cell killing: % is scaled to controls: 0 for no effect and ±100 for the full control effect
# Procedure, shortened: (§2)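 Four patient lines of CD133+ GBM neurospheres were screened at several concentrations; hits were retested in those lines plus three slower-growing GBM lines, using 48-hour treatment and ATP-based viability.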
# astro = test: as above; settings: viability, ATP luminescence, 48 h; activity, negative = cell killing: at 45.9 µM (top of the series) unless noted
# Procedure, shortened: as §2
# 7G8 = test: qHTS profiling for inhibitors of Plasmodium falciparum proliferation (AID 504749); also: nearly all actives have a fitted effect of over 60% in size; settings: P. falciparum in erythrocytes, SYBR Green DNA, 72 h; series mostly up to 28.7 µM
# Procedure, shortened: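 P. falciparum-infected erythrocytes (0.3% parasitemia, 2.5% hematocrit final) were exposed to compounds for 72 h at 37 C in 5% CO2, then lysed with SYBR Green buffer overnight at room temperature; parasite DNA fluorescence was normalized to artemisinin and DMSO controls.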
# [2] = qHTS assay to identify inhibitors of the type 1 interferon - major histocompatibility complex class I in skeletal muscle: Counter screen cell viability and HiBit confirmation (AID 1347412); settings: iHSKM muscle cells + IFN-b, HiBiT or CellTiter-Glo, 24 h; Viability; also: nearly all actives have a fitted effect of over 60% in size
# Procedure, shortened: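 Luminescence read-out: Nano-Glo HiBiT lytic signal from C-terminally HiBiT-tagged HLA-B in CRISPR-edited human myoblasts, plus CellTiter Glo ATP as viability counter screen. IFN-beta 4.0 ng/ml; 24 hrs treatment at 37 C, 5% CO2.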
# Potency is read from the fitted curve at half-maximal effect; tags tell the direction and shape of the fitted curve.
compound,measurement,setting,value
Cc1c(C(=O)c2cccc3ccccc23)c2cccc3c2n1[C@H](CN1CCOCC1)CO3,Potency,HaCat,"inconclusive: 37.2 µM [inhibitor, single point]"
same,Potency,KB-3-1,active: 13.2 µM
same,Potency,NIH3T3,"inconclusive: 33.2 µM [inhibitor, single point]"
CCCCCCC(=O)CCCCCC/C=C/C[C@@H](O)[C@H](O)[C@@](N)(CO)C(=O)O,Potency,HaCat,"inconclusive: 0.366 µM [inhibitor, full curve]"
same,max response,KB-3-1,inactive: 4.21% and inactive: -11.8%
same,Potency,[1],"inconclusive: 1.41 µM [inhibitor, full curve]"
CN1C(=O)CN=C(c2ccccc2)c2cc([N+](=O)[O-])ccc21,outcome,HaCat,inactive
same,max response,KB-3-1,inactive: 9.64%
same,Potency,[1],inactive
CNc1ccc2oc(C[C@H]3O[C@@]4(CC[C@H]3C)O[C@H](C(C)C(=O)c3ccc[nH]3)[C@H](C)C[C@H]4C)nc2c1C(=O)O (stereo not given in full),Potency,HaCat,active: 7.31 µM
same,Potency,KB-3-1,active: 2.31 µM
same,Potency,NIH3T3,active: 3.66 µM
c1ccc([C@@H]2C[C@H]2NC2CCNCC2)cc1,Potency,HaCat,"inconclusive: 0.0092 µM [inhibitor, full curve, poor fit]"
same,max response,KB-3-1,inactive: -11.5%
same,Potency,NIH3T3,"inconclusive: 29.1 µM [inhibitor, single point]"
COP(=O)(OC)OC=C(Cl)Cl,max response,HaCat,inactive: -7.81%
same,Potency,KB-3-1,"inconclusive: 29.1 µM [inhibitor, single point]"
same,Potency,[1],active: 7.08 µM
same,Potency,astro,"inconclusive: 5.01 µM [inhibitor, full curve]"
same,Potency,7G8,"inconclusive: 17.8 µM [inhibitor, single point]"
C#C[C@]1(O)C=C[C@@H]2[C@@H]3CCC4=CC(=O)CC[C@@H]4[C@H]3CC[C@@]21CC,outcome,HaCat,inactive
same,Potency,KB-3-1,"inconclusive: 33.2 µM [inhibitor, single point]"
same,max response,NIH3T3,inactive: -5.86%
CC1=CC2/C=C(\C)CCC(O)C(O)C(O)CC(=O)C23C(=O)NC(CC(C)C)C3C1C (stereo not given),Potency,HaCat,"inconclusive: 14.2 µM [inhibitor, single point]"
same,Potency,KB-3-1,"inconclusive: 10 µM [inhibitor, single point]"
same,Potency,NIH3T3,"inconclusive: 12.6 µM [inhibitor, single point]"
COc1ccc2c(c[n+](C)c3c4cc5c(cc4ccc23)OCO5)c1OC,Potency,HaCat,"inconclusive: 37.2 µM [inhibitor, single point]"
same,Potency,KB-3-1,active: 26.4 µM
same,Potency,NIH3T3,"inconclusive: 33.2 µM [inhibitor, single point]"
same,Potency,[2],active: 8.83 µM
Cc1nnc2n1-c1sc(CCc3ccc(CC(C)C)cc3)cc1C(c1ccccc1Cl)=NC2C (stereo not given),Potency,HaCat,"inconclusive: 18.4 µM [inhibitor, single point]"
same,Potency,KB-3-1,"inconclusive: 23.1 µM [inhibitor, single point]"
same,Potency,astro,active: 35.5 µM
CCCCCCC1C(=O)O[C@H](C)[C@H](NC(=O)c2cccc(NC=O)c2O)C(=O)O[C@@H](C)[C@@H]1OC(=O)CC(C)C (stereo not given in full),Potency,HaCat,"inconclusive: 0.184 µM [inhibitor, full curve, poor fit]"
same,Potency,KB-3-1,"inconclusive: 0.0517 µM [inhibitor, full curve]"
same,Potency,NIH3T3,"inconclusive: 1.3 µM [inhibitor, full curve, poor fit]"
C[C@@H]1[C@@H](C(=O)C[C@H]2O[C@@H]3O[C@]4(C)CC[C@@H]5[C@H](C)CC[C@@H]([C@H]2C)[C@@]35OO4)O[C@@H]2O[C@]3(C)CC[C@H]4[C@H](C)CC[C@@H]1[C@@]24OO3,Potency,HaCat,active: 5.26 µM
same,Potency,KB-3-1,"inconclusive: 23.5 µM [inhibitor, partial curve, poor fit]"
same,Potency,NIH3T3,"inconclusive: 14.8 µM [inhibitor, partial curve]"
CC(=O)O[C@H]1C[C@@H](C)O[C@H]2O[C@@H]3CC4CC[C@@H]5C(CC[C@]6(C)[C@@H](C7=CC(=O)OC7)CC[C@]56O)[C@@]4(C=O)C[C@H]3O[C@]21O (stereo not given in full),Potency,HaCat,active: 0.172 µM
same,Potency,KB-3-1,active: 0.0685 µM
same,Potency,NIH3T3,"inconclusive: 9.68 µM [inhibitor, single point]"
CO/C=C(/C(=O)OC)c1ccccc1Oc1cc(Oc2ccccc2C#N)ncn1,Potency,HaCat,"inconclusive: 1.54 µM [inhibitor, full curve]"
same,Potency,KB-3-1,"inconclusive: 31.6 µM [inhibitor, single point]"
same,Potency,NIH3T3,active: 6.86 µM
same,Potency,astro,active: 14.1 µM
Nc1ccc(N=Nc2ccccc2)cc1,Potency,HaCat,"inconclusive: 54.5 µM [inhibitor, single point]"
same,max response,KB-3-1,inactive: -15.1%
same,Potency,NIH3T3,active: 6.86 µM
same,Potency,astro,"inconclusive: 25.1 µM [inhibitor, partial curve]"
